{"source": "the CheMixHub viscosity set", "details": "303.15 K; 101 kPa", "note": "± gives the uncertainty stated by the source. A number of entries come with more than one value. They are shown here; other results are not. The source may hold further records. Values that stand side by side are repeats across runs, samples, wells, individuals or studies. What stands in brackets tells the records apart. Letters count within one entry.", "data": [{"smiles": "c1ccncc1", "values": [{"measurement": "viscosity", "result": "0.8478 ± 0.0076 mPa·s [study A] and 0.8354 ± 0.022 mPa·s [study B] and 0.821 ± 0.008 mPa·s [study C] and 0.821 ± 0.008 mPa·s [study D] and 0.8385 ± 0.012 mPa·s [study E] and 0.8355 ± 0.0085 mPa·s [study F] and 0.826 ± 0.022 mPa·s [study G]"}]}]}
